No constants are given. Whether binding was seen depends on the method and setting. For some of these results: In cells and extracts the contact can be indirect. Some binding calls cover weakened binding; strength is not graded here. For some of these results: Where a sequence is shown, tags or fusion partners need not be part of it. Each block holds one substance with its values, some of them ahead of it.
Columns and labels:
[1] = molecular target: T1, FKBP13 without signal peptide fused to the LexA-DBD (pBTM-FKBP13w/oS) (UniProt P26885); test: two-hybrid; screen in yeast L40: LexA-DBD-FKBP13w/oS as bait, human fetal liver cDNA library in pACT2 as prey; selection for histidine prototrophy, β-gal activity, retransformation with the bait; 30°C
T1 sequence: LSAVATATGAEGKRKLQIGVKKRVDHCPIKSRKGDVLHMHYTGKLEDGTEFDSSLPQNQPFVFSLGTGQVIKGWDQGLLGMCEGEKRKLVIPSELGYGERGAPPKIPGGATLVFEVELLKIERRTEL

[2] = molecular target: FKBP12 fused in frame to the DBD of LexA (pBTM-FKBP12) (UniProt P62942); test: two-hybrid; yeast L40 cotransformed with pGAD-C1q-Cw/oS and LexA-DBD fusions of immunophilins; histidine prototrophy and β-gal activity
[3] = molecular target: T1, FKBP13 without signal peptide fused to the LexA-DBD (pBTM-FKBP13w/oS); test: as above
[4] = molecular target: T2, FKBP25 fused in frame to the DBD of LexA (pBTM-FKBP25) (UniProt Q00688); test: as above
T2 sequence: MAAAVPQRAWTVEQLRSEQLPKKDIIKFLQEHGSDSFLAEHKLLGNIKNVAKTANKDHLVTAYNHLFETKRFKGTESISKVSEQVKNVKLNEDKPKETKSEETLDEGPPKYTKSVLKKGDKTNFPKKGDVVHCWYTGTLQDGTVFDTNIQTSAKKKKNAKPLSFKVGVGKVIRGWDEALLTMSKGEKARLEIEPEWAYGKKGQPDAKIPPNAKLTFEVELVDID

[5] = molecular target: T3, FKBP52 fused in frame to the DBD of LexA (pBTM-FKBP52) (UniProt Q02790); test: as above
T3 sequence: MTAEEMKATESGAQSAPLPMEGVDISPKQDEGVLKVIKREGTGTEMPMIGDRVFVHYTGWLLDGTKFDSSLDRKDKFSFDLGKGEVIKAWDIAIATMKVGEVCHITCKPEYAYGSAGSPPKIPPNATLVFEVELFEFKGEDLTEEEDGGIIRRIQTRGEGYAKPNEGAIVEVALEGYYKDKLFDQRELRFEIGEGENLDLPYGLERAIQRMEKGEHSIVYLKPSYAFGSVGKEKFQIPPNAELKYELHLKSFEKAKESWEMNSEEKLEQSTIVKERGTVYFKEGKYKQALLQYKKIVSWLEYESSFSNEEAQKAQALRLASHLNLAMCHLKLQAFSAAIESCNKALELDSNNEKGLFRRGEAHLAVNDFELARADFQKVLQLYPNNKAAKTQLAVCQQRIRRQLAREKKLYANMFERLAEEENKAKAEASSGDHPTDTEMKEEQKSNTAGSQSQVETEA

[6] = molecular target: T1, FKBP13 without signal peptide fused to the LexA-DBD (pBTM-FKBP13w/oS); test: two-hybrid; yeast L40 cotransformed with pGAD-C1q-Cw/oS and pBTM-FKBP13w/oS, incubated in the presence of FK506 (up to 100 μM); β-gal activity
[7] = molecular target: T4, FKBP13w/oS fused in frame via a 15 amino acid peptide linker to aa 198 to 287 of β-lactamase (pCDNA-FKBP13linkBla[2]) (UniProt P26885); test: split reporter; β-lactamase protein complementation assay: INS-1 cells cotransfected, lysed after two days, hydrolysis of nitrocefin measured in the supernatant
T4 sequence: T1 sequence

binding [1]: binds
Substance: clone A3: cDNA of the C-chain of complement C1 corresponding to amino acids 122 to 217 (library clone in pACT2) (from UniProt P02747 150-245) (domain or fragment)

binding [2]: no binding | binding [3]: binds | binding [4]: no binding | binding [5]: no binding | binding [6]: binds
Substance: full length C1q-C-Gal4AD hybrid protein lacking a 26 amino acids signal peptide (pGAD-C1q-Cw/oS) (from UniProt P02747 27-245)

binding [7]: binds
Substance: β-lactamase aa 21 to 196 fused in frame via a 15 amino acid peptide linker to C1q-Cw/oS (pCMVSPORT-Bla[1]M182TlinkC1q-Cw/oS) (from UniProt P02747 27-245)
